From US20120276193A1 (CYTOGUIDE A S, published 2012) come the findings set out here.

For the assay, the target named is human CD163 on cells (human) (UniProt Q86VB7). The assay can be described thus: flow cytometry, human mononuclear cells from buffy coats stained with Mac2-158-FITC, anti-CD14-PE and KN2/NRY-Alexa Fluor647.

B1: KN2/NRY (antibody)
heavy: QVQLQESGPGLVKPSETLSLTCTVSGYSITSDYAWNWIRQFPGNKLEWMGYITYSGSTYYNPSLKSRVTISVDTSKNQFSLKLSSVTAADTATYYCVSGTYYFDYWGQGTTLTVSSASTKGPSVFPLAPCSRSTSESTAALGCLVKDYFPEPVTVSWNSGALTSGVHTFPAVLQSSGLYSLSSVVTVPSSSLGTKTYTCNVDHKPSNTKVDKRV[left out - human IgG4 Fc]
light: DIVMTQSPSSLSASVGDRVTITCRASQSVSSDVAWFQQKPGKSPKPLIYYASNRYSGVPSRFSGSGSGTDFTLTISSLQAEDFAVYFCGQDYTSPRTFGGGTKLEIKRTVAAPSVFIFPPSDEQLKSGTASVVCLLNNFYPREAKVQWKVDNALQSGNSQESVTEQDSKDSTYSLSSTLTLSKADYEKHKVYACEVTHQGLSSPVTKSFNRGEC
modifications: HRP, Alexa Fluor647 or dexamethasone conjugates in some assays are not carried by the letters
B1 had a share of cells in the upper left quadrant (KN2/NRY-Alexa Fluor 647 positive, CD14-PE negative) of 0.72%; a share of cells in the upper left quadrant (KN2/NRY-Alexa Fluor 647 positive, Mac2-158-FITC negative) of 11.7%; a share of cells in the upper right quadrant (KN2/NRY-Alexa Fluor 647 positive, CD14-PE positive) of 82.2%; a share of cells in the upper right quadrant (positive for both KN2/NRY-Alexa Fluor 647 and Mac2-158-FITC) of 70.7%.
